Laboratory results as given in patent publication US20070249022A1 (ACCELERON PHARMA, published 2007).

Target: T1, GDF-11 (UniProt O95390 299-407)
T1 sequence (looked up): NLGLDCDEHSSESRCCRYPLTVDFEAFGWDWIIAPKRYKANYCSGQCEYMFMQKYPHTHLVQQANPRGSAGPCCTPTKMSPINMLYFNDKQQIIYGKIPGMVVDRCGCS
Assay: cell-based or functional assay

IC50 of inhibition of GDF-11 signaling, A-204 Reporter Gene Assay (pGL3(CAGA)12 luciferase): ~200 pM
B1: ActRIIa-hFc (Fc fusion)
chain: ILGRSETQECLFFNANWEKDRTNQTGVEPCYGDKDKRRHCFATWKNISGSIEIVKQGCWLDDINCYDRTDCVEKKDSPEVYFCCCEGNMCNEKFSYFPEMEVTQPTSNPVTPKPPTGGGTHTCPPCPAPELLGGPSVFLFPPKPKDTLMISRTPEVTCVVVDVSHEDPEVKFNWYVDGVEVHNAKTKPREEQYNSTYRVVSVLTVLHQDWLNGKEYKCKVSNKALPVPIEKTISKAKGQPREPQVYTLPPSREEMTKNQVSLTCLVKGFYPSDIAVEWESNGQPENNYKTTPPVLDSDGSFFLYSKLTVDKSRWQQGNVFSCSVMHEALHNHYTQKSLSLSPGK
